Source: the supplement of paper PMC12632987
The full ranking holds about 2,300 sequences; the median of “median log2 fold change of GCK-ALFA target abundance (FLAG IP / Myc IP barcode read proportion)” is about 0.095, and the lowest 2% start at about -0.47. The list shows a part of the results.

B1: LC3A_23_605 (protein)
chain: MYKVEVIVDFIDKPEEAEKKVEELLKKVEELLKKHKDIVKDYEIKVTREALPDGTTYVEVEITIIIDGTKEEAEEIRNELESIASETLPNGVISSEVEEL
B2: LC3A_free_39_2194 (protein)
chain: SEEETKKAKEELLKLAAEAGEEAKKLAEEIIELIGEELEKLKALLEALKKAKEEGVDILEVLKEALKLAKELKAQGKSKEEIFKAVLQLIEDAINLIPID
B3: LC3A_132_312 (protein)
chain: MEEKYAEIKARLDALLDEAAANIKDKAKVQALLKEIKALLEEAEKELTPEQVAELYDYVADRLDALSQQALAAGQEDVALDLDAASIEAASRSLEAEKKI
B4: LC3A_3_1888 (protein)
chain: MEEKVEEALKKLKEAGASEETLEAFKEAFELLKERGWEEALKTLIEEVEELLDAPNEVLLDFLKEVIELLKQPGVSEEELIKGIKELARLAKNEAEIEEL
B5: LC3A_102_151 (protein)
chain: TPEQRVREAARRALEELLEAIEANESLTPEQKEEARRLAREAIEAALESALSYLRHGFADIEAEDRRIEAIERLAEIDPELAELLRRKIEELERLVEELK
B6: LC3A_28_1078 (protein)
chain: SPIAEQVAAALAEAKAAAARGEEAVLTITVTEDATQEDIDTVIAGLEELAELAKTGGKVTVIIDLDGDIPQEHIDKLADAAEEVEKRNPNLTVIIALPDE
B7: LC3A_28_1179 (protein)
chain: SELEKSIEEALAKAKEAKEKGEPTVITIKVPGDVTQEETEKVIKAMEEIAELLKDIKGSAIVIEVDSGVSQEHLDKLMKKGEEIEKKYPNVTVIFALDEE
B8: LC3A_28_1044 (protein)
chain: NELKEDAEKAIEEAKEQFEKGEEAVVTINVPKIDTETAKKIVTETLEKLIELSKKYGNKKVTVVINFDGDQETLDAIIDVAEEAEKKDPNLTVIIAYDPE
B9: LC3A_128_230 (protein)
chain: NETLKEIKELLEEALKILKEAKSPELPEELWEKALKAIEEAIKLVKENAPVEEIKKALDEAAKYTEELYLYAKSKGLPEATDIAEALILINQALLLVDEL
B10: LC3A_free_8_2471 (protein)
chain: MSQKVVDTAVKGLDELEEKVEKKAKELGKSELDILELKLEIGSTIADVISLSDESPEKILKTYEEGMKDIIKLAKEISEELAKLVEEMSKEGIKKLEELL
B11: LC3A_3_1751 (protein)
chain: MEERLAEARALLEELGFSEETTEAALEVVRLLLERGFERAVEVLLELLKEMKDLPDEILLAMLEDIRRVVETEDLDEEEVIEEIKREARTAKNEAEIIEL
B12: LC3A_free_8_2487 (protein)
chain: SREETRNKITEIVDETIEKVRELAEKLGADRLDILDLELLLGEVIAAAHELEFESIEEVKKEIEESLEEAEELAREISEEVAEVVREAREKILKLLEEAE
B13: LC3A_3_1622 (protein)
chain: MEEKVEEALKLLKEAGASEETLEAFRETAELLMEKGYYEALETLIEEMEKIKDAPNEIILDALKEVKEVVENEDLDEEELIEKIKEIFRTAKNESEIIEL
B14: LC3A_28_1090 (protein)
chain: SELEESLEAALAETRAAAAAGEEAVVTITVTDEATEEDIELLKETLEEIARIGASLPRLTVIIDLEGKNQQKKADIISKFADELEKKYPNLTIIIALEEE
B15: LC3A_free_46_2354 (protein)
chain: VEAKIEVDLLHEDEEVLKKAVEAIKEAAKKIAKKYGLKVEIKEKIEKLPDGSYFAEIEITLKGEDKETLEKAVNELINEIDEIAKKYDVAAIISYEIIEK
B16: LC3A_3_1538 (protein)
chain: LDAAVAAAEAALRAAGASDETLAAFRAAAEALRARGWEAALKTLIEETAELLDAPSELLLDFFEEVLELVETSDLSEEELIARIKELARTTRNEAEIEEL
B17: LC3A_free_8_2462 (protein)
chain: SSQKLVDEAVKLLDELEEKLVEKAKELGLSHLDILDLELEIGSAIADLIGLENESPETILEEAKEDLEEIIEKAKELGEELYKLAKEESEKILKELEKLK
B18: LC3A_45_1947 (protein)
chain: MAEATVLVLVPEEKFDEALAVLREAAEEISARRGLEVEIDEAAVEAAREEAKREGEALLEVTVYSDDKQDALDAAVEIADRLEERLGPSVAVAIAVKEIP
B19: LC3A_28_1035 (protein)
chain: DALRKEAEAAVKEAEALAAKGEEAVVTLKVGKMPTEEAKAVVEEMLERLIEISKKYGNVKISVVIDVDGDQETIDALTDVAEKAEEKNPNLTVIIAIDED
B20: LC3A_free_46_2425 (protein)
chain: VEVEIDIDLLHKDRATLEAAVAEIVAAIREIAARHGAEVEIEVELSEDEDGDYFAEIRATIIAPDRETAERIADEITDAIDEIATKHGVSYIISVEIIEL
B21: LC3A_free_46_2304 (protein)
chain: YKANINIDFGGLDEEGMKKLVDELVKKFKEIAKKYNAKIEIKVEITTDEEGETFANIDITIKAENEETLQKTVTEIIDTVDELTKETGAAALISVEFEKE
B22: LC3A_28_852 (protein)
chain: SKVEEQIEKARKELEEAAKRGEPVVLELTVSGDFTQEEIDKFIEGLRELAELADKHGGHAIIINVEEGVKQEHIDKIADAAEEIEEKYPNVTVIIALPEN
B23: LC3A_3_1889 (protein)
chain: LEEKVKETLKKLKEAGASEETLAAFEEAAKLLKARGWEEALKTLIEEVEKLLDAPNEVILDFLEDVLALLKRPGVTEEELIKEIKELARLAKNEAEIIEL
B24: LC3A_free_8_2454 (protein)
chain: ASQALADTAIAILDEVEEELKKLLEEAGANRLDILEVELEVGSVIAEVVSLSDSSPEEIAKTAIEGLERVLALVAELKPEIAEEAKKLIDAAKERIKAAL
B25: LC3A_3_1391 (protein)
chain: FEEIKKEAVEELKKFGRSEEVIKATQELLDELEKKGYLEAAKTFLEELKKMKDLSDEILLWMINEVLNYVKTNDSSEEEVVNFIKEVATTARNEHEIEEL
B26: LC3A_free_39_2201 (protein)
chain: SEEEFEKYKEELLKLAEKEGEEALKEAKELLKEIEGNVNLAKTVLEEVKRAVEEGADVLELLKELLKLVKELKKEGKSEEEIIKEMKAKADVIINLIPID
B27: LC3A_free_39_2200 (protein)
chain: MEEELQKVKEEILELAKKEGEEALKAAKELLKEIEGDLELAKEVLEQVKRAIEEGADVLKLLKELLELVKKLKAEGKSTEEIIEEIRAEADVIINLIPID
B28: LC3A_3_1504 (protein)
chain: MEERLERLREKLKELGFSEEVIELAVEAMRLLLERGYYEAAETLEELLLEMKDLSNEDMLEFMEEVLELLETSDDSEEEITKKIKEIATITKNAAEIEEL
B29: LC3A_28_1152 (protein)
chain: SELVEEAKKEIEEDAEKDKNEKEVYLRVTITSEMTVEEAEEVMEHVEEVVEKLKDKEKIYVVVTFEEPVSQEVLDTVLERAERIEKKFPNVDVIIALPED

Each binder was assayed against MAP1LC3A, Q9H492 (assay: median log2 fold change of GCK-ALFA target abundance (FLAG IP / Myc IP barcode read proportion) (log2 ratio); each designed protein is fused to an ALFA-tag nanobody in HEK293 cells to bring the named protein to FLAG-tagged glucokinase (GCK); Myc marks an untargeted standard; higher = target protein stabilised (more abundant)). Conditions: target protein: 3xFLAG-MCP-GCK-ALFA reporter; HEK293 landing pad (RPLP).
Outline: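 Binders fused to an ALFA nanobody were recombined as a library into HEK293 landing-pad cells, which were induced with 2 μg mL^−1 doxycycline and then transfected to express a FLAG-tagged target and a Myc-tagged standard. After 48 h, circular RNA barcodes recovered by anti-FLAG and anti-Myc immunoprecipitation of lysates were reverse transcribed, amplified and sequenced. Each binder's target abundance is the median log2 ratio of FLAG to Myc barcode read proportions, from barcodes present at ≥10^−7 in both replicates, binders carrying ≥3 barcodes per replicate, a 10^−6 pseudocount and pooled replicates.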

| Binder | median log2 fold change |
| --- | --- |
| B1 | -0.868 |
| B2 | 0.19 |
| B3 | 0.361 |
| B4 | 0.306 |
| B5 | 0.208 |
| B6 | 0.0592 |
| B7 | 0.0481 |
| B8 | 0.0219 |
| B9 | 0.194 |
| B10 | -0.199 |
| B11 | 0.234 |
| B12 | -0.222 |
| B13 | 0.227 |
| B14 | 0.101 |
| B15 | -1.38e-07 |
| B16 | 0.17 |
| B17 | -0.173 |
| B18 | 0.0364 |
| B19 | 0.0465 |
| B20 | -0.121 |
| B21 | 0.0523 |
| B22 | 0.193 |
| B23 | 0.333 |
| B24 | -0.109 |
| B25 | 0.177 |
| B26 | 0.451 |
| B27 | 0.196 |
| B28 | 0.13 |
| B29 | -0.198 |
